{"source": "the RNAGym collection of RNA variant scans (doi:10.7554/elife.90254)", "parents": {"B1": {"name": "LINE1-full (parent)", "chain": "UACGUAGGUGGUUUUCCCCUGAUAGUGCUAAGGGGGCCUGGAAGUUUGGACUGGGCAGAGCUCAACACAGCGUGGCAAAGUGGCUGUGGCUAGACUGCCUCUCUGGAUUCCUCGUCACUCAGCAGGGCAUCUCUGAGAGAAAUGCC"}}, "note": "The source gives no read counts; variants with many changes may rest on few reads."}
{"variants_of": "B1", "assay": "self-cleavage, relative activity (ratio to wild type); higher = more cleavage; in vitro, sequencing; the parent is a self-cleaving ribozyme"}
{"variant": "A30U C71U U109A A136G", "self-cleavage": 1.18}
{"variant": "A30U C84A A107U", "self-cleavage": 0.2}
{"variant": "A30U C84U U87C A107U C131U", "self-cleavage": 0.01}
{"variant": "A30U C95U A107U", "self-cleavage": 0.25}
{"variant": "A30U G32U A140U", "self-cleavage": 1.25}
{"variant": "A30U G35A U52C U85C U119C C128U", "self-cleavage": 0.09}
{"variant": "A30U G40U G49A C103U A117G", "self-cleavage": 0.82}
{"variant": "A30U G53U U87A A117C A140G", "self-cleavage": 0}
{"variant": "A30U G54A A59G A65G A79G", "self-cleavage": 0}
{"variant": "A30U G83A U85C", "self-cleavage": 0.11}
{"variant": "A30U U46A A67G", "self-cleavage": 0.41}
{"variant": "A30U U46A A92G", "self-cleavage": 0.08}
{"variant": "A30U U46C U104C", "self-cleavage": 1.47}
{"variant": "A30U U47A U119A A121G", "self-cleavage": 1.37}
{"variant": "A30U U47C A67G", "self-cleavage": 0.73}
{"variant": "A30U U47C U81A U108C U112A U115A", "self-cleavage": 2.53}
{"variant": "A30U U52A A107G A138G C146A", "self-cleavage": 1.34}
{"variant": "A30U U52C A78U U115C", "self-cleavage": 2.19}
{"variant": "A30U U62C U73C", "self-cleavage": 0.2}
{"variant": "A30U U85C U108C G144A", "self-cleavage": 0.22}
{"variant": "A30U U87A A94G", "self-cleavage": 0.07}
{"variant": "A30U U119A U134C", "self-cleavage": 0.65}
{"variant": "A31C A50U A107U A117U", "self-cleavage": 1.94}
{"variant": "A31C A77U A107C G127A U134C A140G", "self-cleavage": 1.8}
{"variant": "A31C G35C G44A U134C", "self-cleavage": 1.95}
{"variant": "A31C G75A U132C", "self-cleavage": 0.81}
{"variant": "A31C U52C A79G U96C C99A", "self-cleavage": 0.32}
{"variant": "A31C U73A C76U A124G U130C", "self-cleavage": 2.35}
{"variant": "A31G A42G C76U A124G", "self-cleavage": 1.31}
{"variant": "A31G A42G U47C", "self-cleavage": 0.63}
{"variant": "A31G A42G U85A A94G", "self-cleavage": 0.28}
{"variant": "A31G A43G A78G C90U", "self-cleavage": 0.04}
{"variant": "A31G A43G A142G", "self-cleavage": 1.76}
{"variant": "A31G A43G G82A U100C", "self-cleavage": 2.97}
{"variant": "A31G A43G G88U U112A A136U A138U", "self-cleavage": 0.08}
{"variant": "A31G A43G G114C U143C", "self-cleavage": 1.13}
{"variant": "A31G A43G U62A U108C", "self-cleavage": 0}
{"variant": "A31G A43U A57G U119C A141G", "self-cleavage": 1.67}
{"variant": "A31G A50G G105A", "self-cleavage": 0.8}
{"variant": "A31G A57G A124G", "self-cleavage": 0}
{"variant": "A31G A57G G139C", "self-cleavage": 0.38}
{"variant": "A31G A64G G82A A138G", "self-cleavage": 0.73}
{"variant": "A31G A65G A142G", "self-cleavage": 0}
{"variant": "A31G A78G U132C", "self-cleavage": 1.23}
{"variant": "A31G A79G A117U A142G", "self-cleavage": 1.09}
{"variant": "A31G A79U G125A", "self-cleavage": 2.11}
{"variant": "A31G A92G A94G U109A", "self-cleavage": 0}
{"variant": "A31G A94C A142G", "self-cleavage": 0.33}
{"variant": "A31G A94U A124U A142G", "self-cleavage": 0.21}
{"variant": "A31G A107G G127C", "self-cleavage": 0.82}
{"variant": "A31G A138U A141G", "self-cleavage": 0.56}
{"variant": "A31G C38A U115C A142U", "self-cleavage": 1.18}
{"variant": "A31G C38U G55U U73C", "self-cleavage": 0.39}
{"variant": "A31G C51U A59G A94G U100C U134C", "self-cleavage": 0}
{"variant": "A31G C51U U73A U112A", "self-cleavage": 0.36}
{"variant": "A31G C71U A141G", "self-cleavage": 0.15}
{"variant": "A31G C103A U134A", "self-cleavage": 0.9}
{"variant": "A31G C128U A129U", "self-cleavage": 2.14}
{"variant": "A31G G32C A117G", "self-cleavage": 0.71}
{"variant": "A31G G33A U52A A64C U102C", "self-cleavage": 0.23}
{"variant": "A31G G33A U112A U132C", "self-cleavage": 1.69}
{"variant": "A31G G35C C37A A138G A140G", "self-cleavage": 1.34}
{"variant": "A31G G41A U47A A50U C56U A57G", "self-cleavage": 0.06}
{"variant": "A31G G49A A107G U130A", "self-cleavage": 1.23}
{"variant": "A31G G55C A69G", "self-cleavage": 0}
{"variant": "A31G G105U A136U", "self-cleavage": 1.14}
{"variant": "A31G U39C A141G", "self-cleavage": 1.01}
{"variant": "A31G U39C G82A", "self-cleavage": 2.1}
{"variant": "A31G U39C U119A", "self-cleavage": 1.75}
{"variant": "A31G U46A C51A", "self-cleavage": 1.05}
{"variant": "A31G U46A U85C A129U", "self-cleavage": 0.22}
{"variant": "A31G U46C U96C C110U", "self-cleavage": 0}
{"variant": "A31G U73A C98U", "self-cleavage": 0.17}
{"variant": "A31G U85A A136U", "self-cleavage": 0}
{"variant": "A31G U85A U115A A141G U143C", "self-cleavage": 0.11}
{"variant": "A31G U85C A121U", "self-cleavage": 0.3}
{"variant": "A31G U102C U109C", "self-cleavage": 1.53}
{"variant": "A31G U109A U143A", "self-cleavage": 1.45}
{"variant": "A31G U115A A121G A138G", "self-cleavage": 1.38}
{"variant": "A31G U130C A140G", "self-cleavage": 0.63}
{"variant": "A31U A42G A67G", "self-cleavage": 0.44}
{"variant": "A31U A42G A79G U87C", "self-cleavage": 1.53}
{"variant": "A31U A42G U62C G88A", "self-cleavage": 0.06}
{"variant": "A31U A42G U91C", "self-cleavage": 1.6}
